Measured values reported in patent publication US20230348362A1, “LIPID COMPOUNDS AND LIPID NANOPARTICLE COMPOSITIONS” (Suzhou Abogen Biosciences Co., Ltd., priority 2021, published 2023).
For some assays here: At least one read-out could not be matched to a standard name with certainty. Some compounds share one wording; it may come from a single statement. For some assays here: At least one structure is not confirmed: it was looked up by name or label, or the drawing left a doubt.

System: not listed separately
Test: Lipid nanoparticle size and polydispersity by dynamic light scattering
Assay type: physicochemical
Conditions: LNP of lipid/DSPC/cholesterol/PEG-lipid 50:10:38.5:1.5 encapsulating hEPO mRNA
Protocol: (§1) Briefly, a cationic lipid provided herein, DSPC, cholesterol, and PEG-lipid were solubilized in ethanol at a molar ratio of 50:10:38.5:1.5, and mRNA were diluted in 10 to 50 mM citrate buffer, pH=4. The LNPs were prepared at a total lipid to mRNA weight ratio of approximately 10:1 to 30:1 by mixing the ethanolic lipid solution with the aqueous mRNA solution at a volume ratio of 1:3 using a microfluidic apparatus, total flow rate ranging from 9-30 mL/min. Ethanol were thereby removed and replaced by DPBS using dialysis. Finally, the lipid nanoparticles were filtered through a […] sterile filter.
(§2) Lipid nanoparticle size were determined by dynamic light scattering using a Malvern Zetasizer Nano ZS (Malvern UK) using a […] backscatter detection mode. The encapsulation efficiency of lipid nanoparticles were determined using a Quant-it Ribogreen RNA quantification assay kit (Thermo Fisher Scientific, UK) according to the manufacturer's instructions.

SMILES	polydispersity	size (nm)
CCCCCCCC(=O)OCC(CCCCN1CCC(N(CCO)CCCCC(COC(=O)CCCCCCC)COC(=O)CCCCCCC)CC1)COC(=O)CCCCCCC [Compound 180]	0.095	80.36 nm
CCCCCCCCCCCNC(=O)CCCCCN(CCN(CCO)CCCCC(COC(=O)CCCCCCC)COC(=O)CCCCCCC)C1CCCCC1 [Compound 222]	0.083	121 nm

System: not listed separately
Test: Encapsulation efficiency of lipid nanoparticles, Quant-it Ribogreen RNA assay
Assay type: physicochemical
Conditions: LNP of lipid/DSPC/cholesterol/PEG-lipid 50:10:38.5:1.5 encapsulating hEPO mRNA
Protocol: as §1, §2

SMILES	Encapsulation Efficiency
CCCCCCCC(=O)OCC(CCCCN1CCC(N(CCO)CCCCC(COC(=O)CCCCCCC)COC(=O)CCCCCCC)CC1)COC(=O)CCCCCCC [Compound 180]	91.55%
CCCCCCCCCCCNC(=O)CCCCCN(CCN(CCO)CCCCC(COC(=O)CCCCCCC)COC(=O)CCCCCCC)C1CCCCC1 [Compound 222]	87.16%

System: human erythropoietin (hEPO) mRNA
Test: Animal study: hEPO mRNA LNP tail vein injection, serum hEPO ELISA
Assay type: in vivo
Conditions: female ICR mice, 0.5 mg/kg tail vein injection, blood sampled e.g. 6 hours, relative to MC3 LNP

SMILES	Expression over MC3
CCCCCCCC(=O)OCC(CCCCN1CCC(N(CCO)CCCCC(COC(=O)CCCCCCC)COC(=O)CCCCCCC)CC1)COC(=O)CCCCCCC [Compound 180]	B (≥1 and <2)
CCCCCCCCC(CCCCCC)CNC(=O)CCCCCN(CCOCCO)CCN(CCCCC(COC(=O)CCCCCCC)COC(=O)CCCCCCC)C1CCCCCCC1 (centres unmarked) [Compound 208]	A (≥2)
CCCCCCCCC(CCCCCC)CNC(=O)CCCCCN(CCCCCO)CCN(CCCCC(COC(=O)CCCCCCC)COC(=O)CCCCCCC)C1CCCCC1 (centres unmarked) [Compound 209]	A (≥2)
CCCCCCCCC(CCCCCC)CNC(=O)CCCCCN(CCCCCO)CCN(CCCCC(COC(=O)CCCCCCC)COC(=O)CCCCCCC)C1CCCCCCC1 (centres unmarked) [Compound 210]	A (≥2)
CCCCCCCCC(CCCCCC)CNC(=O)CCN(CCO)CCN(CCCCC(COC(=O)CCCCCCC)COC(=O)CCCCCCC)C1CCCCC1 (centres unmarked) [Compound 211]	B (≥1 and <2)
CCCCCCCCC(CCCCCC)CNC(=O)CCN(CCO)CCN(CCCCC(COC(=O)CCCCCCC)COC(=O)CCCCCCC)C1CCCCCC1 (centres unmarked) [Compound 212]	C (≥0.1 and <1)
CCCCCCCCC(CCCCCC)CNC(=O)CCN(CCO)CCN(CCCCC(COC(=O)CCCCCCC)COC(=O)CCCCCCC)C1CCCCCCC1 (centres unmarked) [Compound 213]	C (≥0.1 and <1)
CCCCCCCCC(CCCCCC)CNC(=O)CCCCN(CCO)CCN(CCCCC(COC(=O)CCCCCCC)COC(=O)CCCCCCC)C1CCCCCCC1 (centres unmarked) [Compound 214]	A (≥2)
CCCCCCCCC(CCCCCC)CNC(=O)CCCCCCCN(CCO)CCN(CCCCC(COC(=O)CCCCCCC)COC(=O)CCCCCCC)C1CCCCCCC1 (centres unmarked) [Compound 215]	C (≥0.1 and <1)
CCCCCCCCC(CCCCCCCC)CNC(=O)CCCCCN1CCC(N(CCO)CCCCC(COC(=O)CCCCCCC)COC(=O)CCCCCCC)CC1 [Compound 218]	C (≥0.1 and <1)
CCCCCCCC(=O)OCC(CCCCN(CCO)CCCCN(CCCCC(COC(=O)CCCCCCC)COC(=O)CCCCCCC)C1CCC1)COC(=O)CCCCCCC [Compound 219]	C (≥0.1 and <1)
CCCCCCCCC(CCCCCCCC)COC(=O)CCCCCN(CCCCN(CCO)CCCCC(COC(=O)CCCCCCC)COC(=O)CCCCCCC)C1CCC1 [Compound 220]	B (≥1 and <2)
CCCCCCCCCCCOC(=O)CCCCCN(CCN(CCO)CCCCC(COC(=O)CCCCCCC)COC(=O)CCCCCCC)C1CCCCC1 [Compound 221]	C (≥0.1 and <1)
CCCCCCCCCCCNC(=O)CCCCCN(CCN(CCO)CCCCC(COC(=O)CCCCCCC)COC(=O)CCCCCCC)C1CCCCC1 [Compound 222]	C (≥0.1 and <1)
CCCCCCCCOC(=O)C(CCCCN(CCN(CCO)CCCCCC(=O)OCC(CCCCCC)CCCCCCCC)C1CCC1)C(=O)OCCCCCCCC (centres unmarked) [Compound 223]	A (≥2)
CCCCCCCCC(CCCCCC)CNC(=O)CCCCCN(CCCCCO)CCN(CCCCC(COC(=O)CCCCCCC)COC(=O)CCCCCCC)C1CCCC1 (centres unmarked) [Compound 224]	B (≥1 and <2)
CCCCCCCCC(CCCCCC)CNC(=O)CCCCCN(CCCCCO)CCN(CCCCC(COC(=O)CCCCCCC)COC(=O)CCCCCCC)C1CCCCCC1 (centres unmarked) [Compound 225]	A (≥2)
CCCCCCCCC(CCCCCC)CNC(=O)CCCCN(CCO)CCN(CCCCC(COC(=O)CCCCCCC)COC(=O)CCCCCCC)C1CCCC1 (centres unmarked) [Compound 227]	B (≥1 and <2)
CCCCCCCCC(CCCCCC)CNC(=O)CCCCN(CCO)CCN(CCCCC(COC(=O)CCCCCCC)COC(=O)CCCCCCC)C1CCCCCC1 (centres unmarked) [Compound 229]	A (≥2)
CCCCCCCCC(CCCCCC)CNC(=O)CCCCCCN(CCO)CCN(CCCCC(COC(=O)CCCCCCC)COC(=O)CCCCCCC)C1CCCC1 (centres unmarked) [Compound 230]	A (≥2)
CCCCCCCCC(CCCCCC)CNC(=O)CCCCCCN(CCO)CCN(CCCCC(COC(=O)CCCCCCC)COC(=O)CCCCCCC)C1CCCCC1 (centres unmarked) [Compound 231]	A (≥2)
CCCCCCCCC(CCCCCC)CNC(=O)CCCCCCN(CCO)CCN(CCCCC(COC(=O)CCCCCCC)COC(=O)CCCCCCC)C1CCCCCC1 (centres unmarked) [Compound 232]	C (≥0.1 and <1)
CCCCCCCCC(CCCCCC)CNC(=O)CCCCCCN(CCO)CCN(CCCCC(COC(=O)CCCCCCC)COC(=O)CCCCCCC)C1CCCCCCC1 (centres unmarked) [Compound 233]	A (≥2)
CCCCCCCCC(CCCCCC)CNC(=O)CCCCCCCN(CCO)CCN(CCCCC(COC(=O)CCCCCCC)COC(=O)CCCCCCC)C1CCCC1 (centres unmarked) [Compound 234]	B (≥1 and <2)
CCCCCCCCC(CCCCCC)CNC(=O)CCCCCCCN(CCO)CCN(CCCCC(COC(=O)CCCCCCC)COC(=O)CCCCCCC)C1CCCCC1 (centres unmarked) [Compound 235]	B (≥1 and <2)
CCCCCCCCC(CCCCCCCC)COC(=O)CCCCCN1CCC(N(CCO)CCCCC(COC(=O)CCCCCCC)COC(=O)CCCCCCC)CC1 [Compound 261]	A (≥2)
